Results as given in the supplement of paper PMC4604168 (melanoma cell lines).
This is one part of the list. Many values rest on one well or one pass, so single values are uncertain.

Key:
Experiment in all cases: cell count relative to DMSO control; melanoma cells; higher = more viable cells
Settings in all cases: library dose: standard library concentration; 72 h
[1] = test system: G361
[2] = test system: IPC-298
[3] = test system: IST-MEL1
[4] = test system: LB2518-MEL
[5] = test system: LOXIMVI
[6] = test system: MEL-HO
[7] = test system: MZ2-MEL
[8] = test system: MeWo
[9] = test system: RPMI7951
[10] = test system: RVH-421
[11] = test system: SkMel28
[12] = test system: SkMel2
[13] = test system: SkMel30
[14] = test system: SkMel5
[15] = test system: UACC257
[16] = test system: UACC62
[17] = test system: WM115
[18] = test system: WM1716
[19] = test system: WM1745
[20] = test system: WM3526
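Also: cells treated in 1,536-well plates, then fixed and DAPI-stained, with nuclei counted from automated high-throughput microscope images.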

| SMILES | cell count [1] | cell count [2] | cell count [3] | cell count [4] | cell count [5] | cell count [6] | cell count [7] | cell count [8] | cell count [9] | cell count [10] | cell count [11] | cell count [12] | cell count [13] | cell count [14] | cell count [15] | cell count [16] | cell count [17] | cell count [18] | cell count [19] | cell count [20] |
| --- | --- | --- | --- | --- | --- | --- | --- | --- | --- | --- | --- | --- | --- | --- | --- | --- | --- | --- | --- | --- |
| NC(=O)c1ccc(N(C(N)=O)c2c(F)cccc2F)nc1-c1ccc(F)cc1F + Clc1ccc(Nc2nnc(Cc3ccncc3)c3ccccc23)cc1 [vatalanib] (first compound 2 µM, partner dose 10 µM) | 70.9% | 69.5% | 76.4% | 92.9% | 75% | 79.2% | 72% | 62.1% | 116% | 99.4% | 101% | 103% | 101% | 59% | 58.8% | 68.1% | 89.1% | 106% | 53.7% | 76.7% |
| Cc1ccc(NC(=O)c2cccc(N(C)C)c2)cc1NC(=O)c1ccc(O)cc1 + CC(C)CCN1c2nc(Nc3cc(F)c(O)c(F)c3)ncc2N(C)C(=O)C1C [BID1870] (first compound 10 µM, partner dose 1 µM) | 73.8% | 79.7% | 81% | 98.3% | 103% | 73.5% | 79.7% | 68.5% | 61.5% | 112% | 71.3% | 70.3% | 58.6% | 60.1% | 83.2% | 74.2% | 70.6% | 96.8% | 65.5% | 60.1% |
| CC(C)(C)c1cnc(CSc2cnc(NC(=O)C3CCNCC3)s2)o1 + COC(=O)c1sccc1S(=O)(=O)Nc1ccc(Nc2ccccc2)cc1OC [GSK0660] (first compound 0.05 µM, partner dose 5 µM) | 90.3% | 101% | 102% | 83.3% | 98.7% | 90.6% | 79.5% | 84.6% | 30.9% | 101% | 66.3% | 80.1% | 85.3% | 76.3% | 105% | 76.3% | 96.2% | 82.4% | 71.8% | 92% |
| NC(=O)c1ccc(N(C(N)=O)c2c(F)cccc2F)nc1-c1ccc(F)cc1F + CN(c1ncccc1CNc1nc(Nc2ccc3c(c2)CC(=O)N3)ncc1C(F)(F)F)S(C)(=O)=O [PF562271] (first compound 2 µM, partner dose 0.4 µM) | 83.8% | 78.5% | 77.3% | 76.4% | 72.2% | 84.3% | 83.6% | 90.8% | 64.2% | 107% | 76.1% | 62.7% | 79.9% | 68.9% | 74.7% | 78.7% | 73.2% | 85.7% | 58.4% | 74.3% |
| NC(=O)c1ccc(N(C(N)=O)c2c(F)cccc2F)nc1-c1ccc(F)cc1F + Cn1cc(/C=C2\C(=O)Nc3cccnc32)c2ccccc21 [GW441756] (first compound 2 µM, partner dose 2 µM) | 107% | 91.2% | 87% | 83.5% | 134% | 78.5% | 84.4% | 86% | 79.8% | 94.9% | 85.1% | 89.9% | 86.2% | 62.7% | 95.2% | 98.1% | 82.7% | 119% | – | 105% |
| NC(=O)c1ccc(N(C(N)=O)c2c(F)cccc2F)nc1-c1ccc(F)cc1F + COc1cc2ncnc(Nc3ccc(Oc4ccccc4)cc3)c2cc1OC [SrcI1] (first compound 2 µM, partner dose 10 µM) | 62% | 65% | 86.1% | 107% | 126% | 79.2% | 61.5% | 67.6% | 53.4% | 83% | 48.4% | 79.3% | 105% | 61.9% | 88.6% | 60.8% | 77.4% | 75.8% | – | 66.3% |
| CCCCCCCCc1ccc(CCC(N)(CO)CO)cc1 [fingolimod] + CCc1ccc(CCOc2ccc(CC3SC(=O)NC3=O)cc2)nc1 [pioglitazone] (first compound 10 µM, partner dose 10 µM) | 0.406% | 29.5% | 10.1% | 0.192% | 49.6% | 9.01% | 4.49% | 48.5% | 8.61% | 8.78% | 0.602% | 0.659% | 6.58% | 57.2% | 75.9% | 13.5% | 12.8% | 15.7% | – | 11.5% |
| CC(C)(C)c1cnc(CSc2cnc(NC(=O)C3CCNCC3)s2)o1 + CCCCCCCCCCCC1=C(O)C(=O)C=C(O)C1=O [Embelin] (first compound 0.05 µM, partner dose 6 µM) | 70.6% | 71.9% | 65.1% | 75.2% | 86.2% | 70% | 76.3% | 95.3% | 48.8% | 76.5% | 53.1% | 61.9% | 85.2% | 65.9% | 86.9% | 59.3% | 76.4% | 79.9% | 69.1% | 96.7% |
| NC(=O)c1ccc(N(C(N)=O)c2c(F)cccc2F)nc1-c1ccc(F)cc1F + O=C(O)C(=O)Nc1sc2c(c1C(=O)O)CCNC2 [TCS401] (first compound 2 µM, partner dose 8.33333 µM) | 81.6% | 110% | 90.6% | 100% | 121% | 83.4% | 133% | 86.9% | 88.4% | 80.1% | 94.1% | 85.1% | 86.9% | 79.5% | 89.1% | 101% | 95.9% | 93.3% | – | 88.7% |
| CC(C)(C)c1cnc(CSc2cnc(NC(=O)C3CCNCC3)s2)o1 + CN(NC(=O)CC(=O)NN(C)C(=S)c1ccccc1)C(=S)c1ccccc1 [STA4783] (first compound 0.05 µM, partner dose 0.03 µM) | 37.5% | 69.2% | 29.3% | 11.8% | 61.6% | 76.3% | 73.2% | 11.6% | 26.9% | 55.1% | 15.5% | 25.6% | 68.2% | 36.2% | 81.1% | 30.3% | 10.2% | 55.5% | 15.8% | 93.4% |
| NC(=O)c1ccc(N(C(N)=O)c2c(F)cccc2F)nc1-c1ccc(F)cc1F + COc1ccc2c(c1)CCC1C2CCC2(C)C(NCCCCCCN3C(=O)C=CC3=O)CCC12 [U73122] (first compound 2 µM, partner dose 2 µM) | 73% | 92.8% | 87.9% | 101% | 73.2% | 79.9% | 96.3% | 49.7% | 22.3% | 68.2% | 90% | 87.1% | 70.9% | 84.7% | 89.2% | 72.5% | 84.9% | 71.6% | – | 88.5% |
| Cc1ccc(NC(=O)c2cccc(N(C)C)c2)cc1NC(=O)c1ccc(O)cc1 + COc1ccc2c(c1)CCC1C2CCC2(C)C(NCCCCCCN3C(=O)C=CC3=O)CCC12 [U73122] (first compound 10 µM, partner dose 2 µM) | 77.5% | 102% | 102% | 57% | 75.4% | 86.4% | 83.5% | 65.6% | 57.5% | 100% | 83.8% | 106% | 117% | 56.3% | 89.5% | 76.3% | 74.6% | 101% | 68.1% | 107% |
| CCc1ccc(CCOc2ccc(CC3SC(=O)NC3=O)cc2)nc1 (stereo not given) [pioglitazone] + Cn1cc(/C=C2\C(=O)Nc3cccnc32)c2ccccc21 [GW441756] (first compound 10 µM, partner dose 2 µM) | 85.9% | 85.2% | 84.4% | 85.9% | 101% | 94.2% | 81.7% | 98.6% | 28.6% | 111% | 71.2% | 91.5% | 79.4% | 70.6% | 81% | 73.9% | 85.7% | 118% | 87.3% | 90.8% |
| NC(=O)c1ccc(N(C(N)=O)c2c(F)cccc2F)nc1-c1ccc(F)cc1F + Cc1cc([N+](=O)[O-])ccc1NS(=O)(=O)c1cc(Cl)ccc1Cl [FH535] (first compound 2 µM, partner dose 5 µM) | 41.8% | 53.8% | 57.2% | 99% | 68.3% | 48.9% | 70.3% | 72.2% | 91.1% | 62.6% | 62.8% | 87.3% | 79.8% | 70.1% | 71.1% | 77.9% | 98.9% | 81.7% | – | 78.5% |
| NC(=O)c1ccc(N(C(N)=O)c2c(F)cccc2F)nc1-c1ccc(F)cc1F + c1cc(-c2cnn3cc(-c4ccc(OCCN5CCCCC5)cc4)cnc23)ccn1 [Dorsomorphin] (first compound 2 µM, partner dose 2 µM) | 64.3% | 80.1% | 103% | 66.7% | 130% | 91.2% | 81.5% | 69.7% | 89.5% | 125% | 62.8% | 99.1% | 95% | 56.4% | 97.6% | 72.7% | 98.4% | 82.1% | – | 94.4% |
| CCCCCCCCc1ccc(CCC(N)(CO)CO)cc1 [fingolimod] + O=S(=O)(c1ccccc1)N(CC(F)(F)F)c1ccc(C(O)(C(F)(F)F)C(F)(F)F)cc1 [T0901317] (first compound 10 µM, partner dose 7 µM) | 0.777% | 66.7% | 2.28% | 0.186% | 23.1% | 17% | 20.7% | 53.4% | 2.41% | 7.52% | 0.855% | 0.0936% | 5.01% | 43.8% | 57.5% | 21.6% | 18.7% | 46.7% | – | 42.7% |
| CCCCCCCCc1ccc(CCC(N)(CO)CO)cc1 [fingolimod] + CC(C)CCN1c2nc(Nc3cc(F)c(O)c(F)c3)ncc2N(C)C(=O)C1C [BID1870] (first compound 10 µM, partner dose 1 µM) | 40.3% | 79.3% | 63.8% | 66.1% | 62.5% | 49.9% | 78.3% | 46.3% | 15.6% | 171% | 37% | 61.7% | 52.3% | 55.6% | 81.8% | 52.5% | 57.1% | 55.5% | – | 51.4% |
| CCCCCCCCc1ccc(CCC(N)(CO)CO)cc1 [fingolimod] + N#Cc1c(O)c2c(-c3ccc(-c4ccccc4O)cc3)csc2[nH]c1=O [A769662] (first compound 10 µM, partner dose 10 µM) | 1% | 57.4% | 8.29% | 0.209% | 22.5% | 3.28% | 1.9% | 31.4% | 2.99% | 22.3% | 0.261% | 0.276% | 12.8% | 50.8% | 80.7% | 19% | 9.19% | 19.1% | – | 33.9% |
